Results reported in article PMC4336329 (PLoS ONE, 2015).
About 14,000 (4.5%) of roughly 310,000 compounds showed an effect of 50% or more. The effect is printed as a negative number. This is one part of the list.

Molecular target: human ether-à-go-go-related gene (hERG) potassium channel (human, UniProt Q12809)
Assay: primary screen, population patch clamp on CHO cells stably expressing hERG
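Also: peak tail current of the secondary pulse compared with the same well before compound.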

Sequence of human ether-à-go-go-related gene (hERG) potassium channel (Q12809 whole entry, looked up): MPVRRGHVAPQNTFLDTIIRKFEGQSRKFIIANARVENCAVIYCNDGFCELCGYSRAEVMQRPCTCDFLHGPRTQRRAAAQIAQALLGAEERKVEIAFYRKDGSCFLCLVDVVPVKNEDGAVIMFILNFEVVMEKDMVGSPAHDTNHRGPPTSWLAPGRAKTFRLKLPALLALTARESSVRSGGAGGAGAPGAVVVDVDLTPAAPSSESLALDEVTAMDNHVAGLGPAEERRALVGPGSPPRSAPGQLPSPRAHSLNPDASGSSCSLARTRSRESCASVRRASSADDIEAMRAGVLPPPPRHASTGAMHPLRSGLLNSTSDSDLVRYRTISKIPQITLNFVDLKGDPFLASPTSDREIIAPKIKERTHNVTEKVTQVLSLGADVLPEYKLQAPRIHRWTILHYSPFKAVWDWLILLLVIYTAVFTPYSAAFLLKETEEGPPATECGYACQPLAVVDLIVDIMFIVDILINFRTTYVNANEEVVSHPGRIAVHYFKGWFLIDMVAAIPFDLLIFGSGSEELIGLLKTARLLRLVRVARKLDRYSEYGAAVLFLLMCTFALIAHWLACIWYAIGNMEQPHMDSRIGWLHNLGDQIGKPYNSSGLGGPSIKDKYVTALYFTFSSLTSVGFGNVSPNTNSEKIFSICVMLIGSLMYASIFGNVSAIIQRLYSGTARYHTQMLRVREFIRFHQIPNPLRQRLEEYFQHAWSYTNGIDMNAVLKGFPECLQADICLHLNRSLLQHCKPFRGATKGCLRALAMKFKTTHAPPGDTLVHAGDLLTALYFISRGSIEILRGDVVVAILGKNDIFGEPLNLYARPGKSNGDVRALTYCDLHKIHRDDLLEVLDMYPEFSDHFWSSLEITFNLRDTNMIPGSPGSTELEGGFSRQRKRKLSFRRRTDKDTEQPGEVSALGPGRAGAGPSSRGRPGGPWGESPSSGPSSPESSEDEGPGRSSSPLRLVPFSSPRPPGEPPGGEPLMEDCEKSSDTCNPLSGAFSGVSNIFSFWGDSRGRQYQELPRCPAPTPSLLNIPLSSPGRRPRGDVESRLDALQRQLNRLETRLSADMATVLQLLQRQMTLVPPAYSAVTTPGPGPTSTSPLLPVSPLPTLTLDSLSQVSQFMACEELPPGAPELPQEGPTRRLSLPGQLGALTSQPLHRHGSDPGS

Structure (SMILES)	hERG current change (%, negative = inhibition) at 10uM [%]
CCOc1ccc(CCNC(=O)c2cc(C)nc3ccccc23)cc1OCC	-12.6
CCCc1nnc(NC(=O)Nc2ccc(OC)cc2)s1	25
CN1/C(=C\C(=O)CSc2nnc(N)s2)C(C)(C)c2ccccc21	0.532
Cc1c(NC(=O)C2CC(c3ccc(F)cc3)=NO2)c(=O)n(-c2ccccc2)n1C (centres unmarked)	-3.93
Nc1c2nc(-c3ccccc3)[nH]c(=O)c2nc(=O)n1-c1ccccc1	-0.0595
NS(=O)(=O)c1ccc(NC(=O)CSc2nnc(COc3ccccc3Cl)n2C2CC2)cc1	6.32
CC(CC#CCN1CCOCC1)OCCC#N (centres unmarked)	8.96
O=C(NC1CCC(O)CC1)c1ccc(NS(=O)(=O)c2cccc([N+](=O)[O-])c2)cc1 (centres unmarked)	11.3
CCC1S/C(=C(\C#N)C(N)=O)N(c2ccc(F)cc2)C1=O (centres unmarked)	7.87
O=C(c1ccc(S(=O)(=O)N2CCOCC2)cc1)N(c1ccccc1)C1C=CS(=O)(=O)C1 (centres unmarked)	-15
CCc1nnc(NC(=O)c2ccc3nc(CC)c(CC)nc3c2)s1	31.4
Cc1ccc(-n2c(-c3ccc(Cl)cc3)n[nH]c2=S)c(C)c1	8.6
Cc1nn(CC(O)COc2ccc3c(c2)CCC3)c(C)c1Br (centres unmarked)	16.2
O=C(CSc1nc(-c2ccccc2)cs1)NCCN1C(=O)CSC1=O	-2
CCCn1c(Cc2ccccc2)n[nH]c1=S	18.4
CC(=O)c1ccc(NC(=O)C(C)OC(=O)c2ccc3c(c2)nc(C)n3-c2ccccc2)cc1 (centres unmarked)	-6.6
COc1ccc(-c2coc3cc4oc(=O)cc(-c5ccccc5)c4cc23)cc1F	-4.78
COc1ccc(C(=O)N2CC3(C)CC2CC(C)(C)C3)cc1OC (centres unmarked)	-21.4
O=C(CN1CCCCCC1)Nc1cc(C(F)(F)F)ccc1Cl	35.7
COc1ccc([C@H]2CC(=O)C=C(c3ccc(OC)c(OC)c3)C2)cc1	-1.6
CC[C@@H](C)[C@H](NC(=O)CCc1c(C)c2cc3c4c(oc3c(C)c2oc1=O)CCCC4)C(=O)O	2.16
CCCNC(=O)C(Cc1ccc(F)cc1)NC(=O)c1ccc(C#N)cc1 (centres unmarked)	-48.3
Cc1ccc(NC(=O)/C(=C\c2cccc(Br)c2)NC(=O)c2ccco2)cc1	-12.4

Structure (SMILES)	hERG current change (%, negative = inhibition) at 10uM [%]
CCOC(=O)CN(C)Cc1cn[nH]c1-c1ccc2cc(OC)ccc2c1	-5.34
COc1ccc(CCc2nnc(CCC(=O)NCc3cc(C(C)C)no3)o2)cc1	7.71
CCn1c(SCC(=O)Nc2ccc(NC(=O)c3ccco3)cc2)nnc1-c1cccs1	11.9
COc1ccc(-c2csc(NC(=O)c3ccoc3C)n2)cc1	22.1
CCN1CSC(=S)N(Cc2ccccc2)C1	12.2
CCOc1ccc(-c2nc(C#N)c(N3CCN(CC)CC3)o2)cc1	-47.3
Cc1cc([N+](=O)[O-])ccc1N1C(=O)c2ccc(C(=O)Nc3ccccc3C(=O)O)cc2C1=O	9.66
CCOCCCNC(=S)N1CCCN(c2nc3cc(C)c(C)cc3cc2C#N)CC1	-36.4
COc1ccc(N2CCN(CC(=O)c3ccc(O)cc3O)CC2)cc1	11
CCOC(=O)c1cnc2c(OC)cccc2c1Oc1ccccc1	3.3
N/C(=N\OC(=O)C12CC3CC(CC(C3)C1)C2)c1ccccn1	2.13
COCCN(C(=O)c1csnn1)C(C(=O)NC1CCCC1)c1ccc(C)cc1 (centres unmarked)	3.89
O=C1CCN(Cc2ccccc2)CCN1CCOc1ccccc1	-10.4
Cc1cc(C)cc(C(=O)OCC(=O)NCc2cccs2)c1	12.1
CCCCNC(=O)Oc1cc(CCl)on1	25.2
Cc1cccc(NC(=O)CN2NS(=O)(=O)c3ccccc3C2=O)c1	-12.3
CCOC(=O)CNc1nc(OCC#N)nc(N2CCOCC2)n1	-10.7
O=C(Cn1cnc2ccccc2c1=O)c1ccc2c(c1)OCCO2	5.39
Cc1ccc(C(=O)NC(NCc2ccccc2)C(Cl)(Cl)Cl)cc1 (centres unmarked)	-11.3
COc1cc(OC)c(C(=O)NCc2ccc3c(c2)OCO3)cc1OC	-10.5
CC1C(=O)C(C)C(c2ccc([N+](=O)[O-])cc2)NC1c1ccc([N+](=O)[O-])cc1 (centres unmarked)	-46
CCn1nc(NS(=O)(=O)c2ccccc2)c2cc3ccc(C)cc3nc21	-3.92
CCCCOc1ccc(C(=O)N/C(=C/c2cccc([N+](=O)[O-])c2)C(=O)O)cc1	19.5

Structure (SMILES)	hERG current change (%, negative = inhibition) at 10uM [%]
CN1CCCN(C2C3CC4CC(C3)CC2C4)CC1 (centres unmarked)	10.9
N#CCCC12CCCCC1=Nc1ccccc12 (centres unmarked)	6.76
O=C(Nc1ccc(Br)cc1F)c1ccncc1	-11.2
CCc1ccc(CNC(=O)C2CCN(S(=O)(=O)N3CCC(C)CC3)CC2)cc1	1.4
CS(=O)(=O)N1N=C(c2cccs2)CC1c1ccccc1O (centres unmarked)	0.712
COc1cc(C(F)(F)F)c(C(=O)N(C)Cc2ccc(Cl)c(Cl)c2)cn1	-15.4
COc1ccc(-n2nc(C(=O)NCC(=O)N3CCN(c4cccc(Cl)c4)CC3)c3ccccc3c2=O)c(OC)c1	-2.74
CCOc1ccc(N2CC(C(=O)NCCc3ccccc3)CC2=O)cc1 (centres unmarked)	-29.6
CCCCC1=NN(C(=O)c2cccnc2)C(O)(C(F)(F)F)C1 (centres unmarked)	16.1
CCNc1nc(NC(C)C)nc(Oc2ccc(OCCOc3ccc(C)cc3)nn2)n1	-48.2
COc1ccc(-c2n[nH]c(=S)n2-c2ccc(C)cc2)cc1	8.3
CC(C)Oc1ccc(Cc2cnc(=S)[nH]c2N)cc1	15.8
CC(C)Cn1c(N)c(C(=O)CSc2nc3ncc(Cl)cc3[nH]2)c(=O)n(C)c1=O	-0.019
CCCC1CCC(c2ccc(C(=O)NN)cc2)CC1 (centres unmarked)	5.09
Cc1[nH]nc2c1C1(C(=O)N(Cc3ccc(Cl)cc3)c3ccccc31)C(C#N)=C(N)O2 (centres unmarked)	-25.9
CC1CCC(C(C)C)C(=O)/C1=C/c1ccc(N)cc1 (centres unmarked)	-17
CC1=[N+]([O-])C(C)(C)N(O)C1(C)C	18.1
COc1ccccc1NS(=O)(=O)c1cccc(NC(=O)Nc2ccccc2)c1	13.7
Cc1ccc(-n2c(O)c(C=NCC3CCCO3)c(=O)[nH]c2=O)c(C)c1 (centres unmarked)	20.8
O=C(O)C1CCCN1C(=O)c1cccs1 (centres unmarked)	10.1
O=C(Nc1ccc(N=Nc2ccccc2)c(NC(=O)C2CCCO2)c1)C1CCCO1 (centres unmarked)	-22.9
CCS(=O)(=O)Nc1cccc(C(=O)O)c1	-0.622
COc1ccc(/C=C/C(=O)Nc2cc(C(F)(F)F)ccc2Cl)cc1OC	11

Structure (SMILES)	hERG current change (%, negative = inhibition) at 10uM [%]
Cc1cccc(NC(=O)NNS(=O)(=O)c2ccc(F)cc2)c1	-1.81
O=C(O)c1cc(N/N=C/c2ccc(-c3ccccc3)cc2)ccc1Cl	16.7
O=C(CCC(=O)NNC(=O)c1ccccc1[N+](=O)[O-])NCc1ccccc1	10.9
COc1ccc(S(=O)(=O)NCc2ccccn2)cc1OC	14
CN(CCNS(=O)(=O)c1ccc2c(c1)oc(=O)n2C)Cc1ccccc1	-18.1
COCCCNC(=O)Cn1c(=O)n(CCCCCC(=O)Nc2ccccc2)c(=O)c2sccc21	-0.555
N#CCCN(Cc1ccccc1)C(=S)Nc1ccccc1	-14.3
CCOc1ccc(NC(=O)[C@@H]2CCCN2C(=O)c2cccs2)cc1S(=O)(=O)N1CCOCC1	6.27
Cc1ccc(OCC(=O)NC2CCCC2)c(C)c1	2.93
COc1ccc(OCc2cc(C(=O)N(C)C(C)c3ccon3)no2)c(Cl)c1 (centres unmarked)	-7.91
Cn1c2c(c(=O)n(C)c1=O)CN(Cc1ccco1)CN2	4.7
CN(NC(=O)c1ccccc1Cl)c1ncc(C(F)(F)F)cc1Cl	-1.95
CCC(C)C(=O)OCC1(c2ccc(C)cc2OC(=O)C(C)C)CO1 (centres unmarked)	5.95
Cc1cc2ncn(S(=O)(=O)c3ccc(F)cc3)c2cc1C	9.64
CC(=O)Nc1cccc(NC(=O)Nc2ccc(C(C)=O)cc2)c1	12.4
COc1cc(OC)cc(C(=O)NCC(=O)OCC(=O)Nc2cc(S(C)(=O)=O)ccc2Cl)c1	10.7
Cc1ccc(Cn2c(=N)c(S(=O)(=O)c3ccc(C)cc3)cc3c(=O)n4ccccc4nc32)cc1	17.7
CCOC(=O)c1cccc(NC(=O)Cn2nc(C)n3cccc3c2=O)c1	-1.5
COc1cc(C(=S)N2CCN(c3cccc(Cl)c3)CC2)ccc1O	9.46
COC(=O)C1C(=O)C2=C(CC1C)NC(C)=C(C(=O)OC1CCCCC1)C2c1ccc(N(C)C)cc1 (centres unmarked)	8.41
